The source of these data is ChEMBL document CHEMBL4888484, “Replenishing the malaria drug discovery pipeline: Screening and hit evaluation of the MMV Hit Generation Library 1 (HGL1) against asexual blood stage Plasmodium falciparum ,using a nano luciferase reporter read-out” (2022).

Structures are written as SMILES. The whole screen tested about 150,000 compounds, of which about 540 (0.36%) showed an effect of 50% or more. The list shows a part of the results.

This test has as its system Plasmodium falciparum. Description: Primary screen in NF54 nanoGlo assay, in single point, at 2uM, 72h; a lower Z score goes with more inhibition. The settings on record: timepoint 72 hour. The test is classed as functional, Erythrocyte.
One may read the % Inhibition as the drop in the measured response relative to a control, in per cent. Turning to `CCCN(CC(=O)Nc1cc(N2CCN(C(=O)NC(C)C)CC2)ccc1Cl)C(=O)c1ccccc1Cl`, the “% Inhibition” value is -5% and the Z score was determined as 0.83.
Regarding `CCn1nnc(C)c1C(=O)N[C@H]1CC(C)(C)Oc2ccccc21`, the “% Inhibition” value is -6% and the Z score came out at 0.73.
As for `O=C(O)CCc1cc2n(n1)CCN(Cc1ccc3oc4ccccc4c3c1)C2`, the “% Inhibition” value is reported as -11% and the Z score turned out to be 1.87.
The matching figures for `COC12NC(=O)N(C)C1(OC)C(=O)N(C)C(=O)N2C` (stereo not drawn): -11% and 1.34.
The corresponding values for `Cc1ccccc1CN(C(=O)C1CCCC1)c1ccc(CC(=O)Nc2ccc(F)cc2)cc1` are -11% and 1.51.
As for `CC(=O)N1CCC(Oc2ccc(Cl)cc2C(=O)N(C)Cc2nccs2)CC1`, the “% Inhibition” value was -10% and the Z score is 1.79.
Turning to `CN=C(NCCC1=CCCCC1)N(C)C`, the “% Inhibition” value was -15% and the Z score is given as 2.87.
With `O=C(Nc1ccc(-n2cc(Br)cn2)nc1)c1ccc2ncsc2c1`, the “% Inhibition” value is on record as -14% and the Z score was determined as 1.83.
As for `CCN1CCN(C(=O)CCc2ccc3ccccc3c2O)CC1=O`, the “% Inhibition” value was -11% and the Z score is 1.82.
The matching figures for `CC(C)c1[nH]ccc1C(=O)N[C@H]1COc2cc(F)c(Br)cc21`: -3% and 0.4.
For `CCN(CC1CC1)c1nnc(-c2ccccn2)n1C[C@H]1CCOC1`, the “% Inhibition” value is on record as -2% and the Z score was 0.31.
The matching figures for `Cn1cccc1C(=O)NC[C@H]1CCc2cccnc21`: -4% and 0.47.
Regarding `CCc1nc([C@@H]2CCCN2CCN2CCOCC2)no1`, the “% Inhibition” value amounted to 6% and the Z score is recorded as -0.76.
In the case of `Cc1nnc(-c2nnc(NCC(C)C)c3ccccc23)o1`, the “% Inhibition” value was -14% and the Z score is 1.61.
Take `CCc1cc(C(=O)N2CC[C@@]3(CCCN(CC4CC4)C3=O)C2)on1`: the “% Inhibition” value was found to be 7% and the Z score is on record as -1.23.
Turning to `CC[C@H](NC(=O)c1cccn1C1CC1)c1ncccc1C`, the “% Inhibition” value was -3% and the Z score stood at 0.38.
As to `CC(=O)N(CCCN1CCOCC1)[C@H]1CCN(S(=O)(=O)c2ccc(F)c(F)c2)C1`, the “% Inhibition” value amounted to 2% and the Z score is recorded as -0.17.
The corresponding values for `CC(Cc1csc2ccccc12)NC(=O)C1CCOC1` (stereo not drawn) are -8% and 0.88.
Regarding `CCn1cc(-c2ccncc2)cc1C(=O)NC1CCCCC1`, the “% Inhibition” value is reported as -15% and the Z score is on record as 2.44.
The matching figures for `Cc1cc(C(=O)NC2CC(C)(F)C2)co1` (stereo not drawn): -5% and 0.58.
With `CN1C[C@@H](NS(=O)(=O)c2cccc3nsnc23)CC1=O`, the “% Inhibition” value is listed as -4% and the Z score is 0.51.
`Cc1cc(NC(=O)[C@H](C)S(=O)(=O)Cc2ccc(F)cc2)no1`: the “% Inhibition” value is reported as -2% and the Z score was determined as 0.14.
The matching figures for `Cc1cccc(CN2CCC(F)(C(=O)N3CCCC3)CC2)c1`: -3% and 0.57.
As to `COC(=O)CC1(NS(=O)(=O)c2ccc(C(F)F)cc2)CCCC1`, the “% Inhibition” value stood at 3% and the Z score is -0.4.
As for `CC(C)[C@H](O)C(C)(C)CNC(=O)Nc1ccccc1-n1ccnn1`, the “% Inhibition” value is recorded as 11% and the Z score is listed as -1.1.
The corresponding values for `Cc1ccccc1-c1nnc(-c2ccc(-c3ccccc3)cc2)n1-c1ccccc1` are 1% and -0.11.
With `CC(C)N1C[C@@H](NC(=O)c2cc(C(F)F)n(C)n2)CC1=O`, the “% Inhibition” value was 0% and the Z score came out at 0.08.
On to `Cc1cc(C)c2c(c1)CCCN2S(=O)(=O)c1cccc2cccnc12`, for which the “% Inhibition” value is 2% and the Z score was -0.23.
`COc1ccc(CNC(=O)c2[nH]c(C)c(S(=O)(=O)N3CCC(C)CC3)c2C)cc1`: the “% Inhibition” value was -18% and the Z score was found to be 2.37.
Take `O=C(Nc1cccc(C(F)(F)F)c1)c1cnc(O[C@H]2CCOC2)c(Cl)c1`: the “% Inhibition” value turned out to be 4% and the Z score is on record as -0.68.
`CC(C)[C@H](C)N(Cc1ccco1)C(=O)CCn1nnc2ccccc21`: the “% Inhibition” value is -4% and the Z score stood at 0.48.
Take `O=C(Cc1csc(NC(=O)c2ccco2)n1)Nc1ccc2c(c1)OCO2`: the “% Inhibition” value is -22% and the Z score was determined as 2.9.
As for `COc1ccc(S(=O)(=O)Oc2cc(CN(C(=O)c3ccco3)C(C)C)ccc2OC)cc1`, the “% Inhibition” value is on record as -2% and the Z score turned out to be 0.36.
With `CO[C@H]1CCCOC12CCN(C(=O)c1ccc(-n3cnnc3)nc1)CC2`, the “% Inhibition” value was 0% and the Z score was -0.05.
For the molecule `Cc1ccc(NC(=O)[C@@H]2CCCN2S(=O)(=O)c2ccc3c(c2)NC(=O)CO3)cc1F`, the “% Inhibition” value was -5% and the Z score is given as 0.74.
Consider `CC[C@H](C)NC(=O)NCc1nc(C(=O)N2CCC(C)CC2)c(C)o1`, for which the “% Inhibition” value is given as -2% and the Z score was found to be 0.34.
On to `CS(=O)(=O)c1ccc(NC(=O)c2cc(O)ncn2)cc1`, for which the “% Inhibition” value was found to be 1% and the Z score is given as -0.18.
With `Cc1cccc(C[C@H](C)NC(=O)C(=O)c2cccnc2)n1`, the “% Inhibition” value was -11% and the Z score is reported as 2.23.
Take `CC1=NN=C(c2ccccc2)Cc2c1c(C)n(Cc1ccccc1)c2-c1ccccc1`: the “% Inhibition” value amounted to 31% and the Z score was -3.46.
With `CNC(=O)[C@@H]1CCCN1C(=O)CNC(=O)c1cc(C)nc(OC)c1`, the “% Inhibition” value was -14% and the Z score was determined as 1.31.
For `CCOc1cc(NCc2nnc3ccccn23)ncn1`, the “% Inhibition” value is given as -10% and the Z score is 1.03.
As to `C[C@H]1CCc2onc(C(=O)N3CCN(c4ccc(F)cc4)CC3)c2C1`, the “% Inhibition” value is reported as -17% and the Z score was determined as 3.16.
In the case of `COc1ccc2nc(NCc3cc(C#CCO)cs3)sc2c1`, the “% Inhibition” value is on record as -11% and the Z score came out at 1.39.
The corresponding values for `Cc1cc(C(=O)CN2CCC[C@H](C(=O)NCC(F)(F)F)C2)c(C)[nH]1` are -4% and 0.37.
The matching figures for `CCc1nc(CN(CC#N)S(=O)(=O)N(C)C)no1`: -7% and 1.4.
Take `CC(C)(C)c1nc(CS(C)(=O)=O)no1`: the “% Inhibition” value is 3% and the Z score was -0.66.
The corresponding values for `COc1ccc(F)cc1S(=O)(=O)N1Cc2cnc(N3CCOCC3)nc2C1` are -15% and 2.77.
In the case of `CCC1Oc2cc(S(=O)(=O)N3CCCC(C(=O)N4CCC(C)CC4)C3)c(C)cc2NC1=O` (stereo not drawn), the “% Inhibition” value was found to be 3% and the Z score is reported as -0.59.
For `CNC(=O)c1noc(CNC2CCN(c3ccc4c(c3)CCC4)CC2)n1`, the “% Inhibition” value is recorded as -2% and the Z score stood at 0.36.
Turning to `CCCNC(=O)N1CCC(O)(c2csc(CN3CCc4ccccc4C3)n2)CC1`, the “% Inhibition” value was determined as 28% and the Z score is recorded as -3.21.
For `O=C1CN(Cc2ccc3c(c2)OCO3)[C@H]2CS(=O)(=O)C[C@H]2N1c1ccc(Cl)cc1`, the “% Inhibition” value was 1% and the Z score is -0.15.
For the molecule `O=C(Nc1cc(Br)cc(C(F)(F)F)c1)c1ccnnc1`, the “% Inhibition” value is listed as -2% and the Z score is reported as 0.3.
On to `FC(F)(F)c1nccc(OCc2noc(C3CC3)n2)n1`, for which the “% Inhibition” value is -9% and the Z score came to 1.25.
Take `CC(C)n1nccc1CN1C(=O)c2ccccc2C1=O`: the “% Inhibition” value is -4% and the Z score is recorded as 0.64.
Regarding `O=C(Nc1cccc2[nH]cnc12)c1ccc(F)cc1F`, the “% Inhibition” value was -7% and the Z score is recorded as 1.36.
`O=C(NCc1ccccc1)N1CCC[C@H](Cn2cnc3cccnc32)C1`: the “% Inhibition” value is listed as -12% and the Z score is 1.77.
The corresponding values for `Cc1ccc([C@@H](C)NC(=O)Nc2cn(C)nn2)cc1F` are 1% and -0.23.
The matching figures for `CCN1CC(=O)N[C@H]2CN(C(=O)CCn3cccn3)CC[C@@H]2OCc2cccc(c2)Oc2cc(OC(C)C)cc(c2)C1=O`: 6% and -0.85.
In the case of `CCCCOC1CC(N(C)C(=O)c2snnc2C)C1(C)C` (stereo not drawn), the “% Inhibition” value was -13% and the Z score turned out to be 2.43.
Consider `O=C(COc1ccc(Cl)cc1Cl)N1CC(c2nc(-c3cccnc3)no2)C1`, for which the “% Inhibition” value was 9% and the Z score was -1.63.
The matching figures for `O=C(NCc1ccc2c(c1)OCO2)c1cnccn1`: -10% and 1.23.
Take `O=C(Nc1ccc(Br)cc1)c1cccn2c(-c3ccc(F)cc3)nnc12`: the “% Inhibition” value was -4% and the Z score worked out at 0.58.
Turning to `Cc1cc(C)c(C(=O)O)c(OC2CCC2)n1`, the “% Inhibition” value is -5% and the Z score worked out at 0.57.
Take `Cc1nc(C(=O)NCCc2nccs2)c(-c2ccccc2Cl)s1`: the “% Inhibition” value is reported as -2% and the Z score is given as 0.36.
Take `O=C(CN1CCCCCC1=O)N1CCCCC1`: the “% Inhibition” value is given as -5% and the Z score came out at 0.67.
For `O=C(Cc1ccc(Cl)cc1Cl)N1CC[S+]([O-])CC1`, the “% Inhibition” value is 2% and the Z score is reported as -0.29.
Consider `CCN(CC)CCOCCOc1ccc(Br)cc1C`, for which the “% Inhibition” value is recorded as -2% and the Z score was 0.33.
For `O=C(Cc1ccc(F)cc1)NC1CCCCCCC1`, the “% Inhibition” value was -2% and the Z score is reported as 0.34.
As for `COC(=O)N1CCn2nc(CN(C)Cc3nc4ccc(F)cc4[nH]3)cc2C1`, the “% Inhibition” value amounted to 1% and the Z score is on record as -0.17.
Regarding `Cc1cccc(-c2nc3ccccc3o2)c1OS(=O)(=O)c1ccc(F)cc1`, the “% Inhibition” value is -4% and the Z score was found to be 0.52.
Turning to `Cc1ccc(-c2nc(NC(=O)c3cc(C)on3)sc2C)cc1`, the “% Inhibition” value came to 1% and the Z score was -0.14.
The corresponding values for `Cc1cnc(C)n1C[C@H]1CCN(S(=O)(=O)c2ccccc2)C1` are -3% and 0.44.
Turning to `Cc1cc(-c2ccccc2)nc(CN2CCS(=O)(=O)CC2)n1`, the “% Inhibition” value is -2% and the Z score came out at 0.35.
Turning to `NCCC(=O)N(Cc1ccccc1OC(F)(F)F)C1CCCC1`, the “% Inhibition” value is listed as 10% and the Z score is given as -1.18.
Consider `O=C(N[C@H]1CC(=O)N(CC2CCCCC2)C1)c1ccsc1`, for which the “% Inhibition” value is -14% and the Z score is given as 1.79.
The matching figures for `Cc1noc(C)c1C(=O)Nc1sc(-c2ccccc2)c(C)c1C(=O)N1CCOCC1`: -12% and 1.7.
For `COc1ccc(CNC(=O)N2CC[C@H](CC(=O)N(C)Cc3ccccc3)C2)cc1`, the “% Inhibition” value is recorded as -9% and the Z score is 1.37.
As for `CC[C@@H](C(=O)N(CC)Cc1ccc(C)o1)n1cccn1`, the “% Inhibition” value came to 1% and the Z score is on record as -0.13.
The corresponding values for `COCCN1C[C@@H](Cc2cc(C)c3ccc(C)c(C)c3n2)CC1=O` are -12% and 1.28.
Take `Cc1cccc(OCC(=O)N2CCC(CN3C[C@@H](COc4cnccn4)CC3=O)CC2)c1`: the “% Inhibition” value is given as -13% and the Z score was 2.56.
With `O=C(c1c[nH]cn1)N1CC[C@@]2(CCCN(CCCc3ccccc3)C2)C1`, the “% Inhibition” value turned out to be 1% and the Z score was -0.26.
Consider `COc1ccc(Cn2cc([C@H](CC(=O)N3CCOCC3)c3ccc(F)cc3)c3ccccc32)cc1`, for which the “% Inhibition” value was 10% and the Z score is -1.3.
The corresponding values for `COc1ccc(CNC(=O)[C@@H]2CCC[C@@H](NC(=O)Nc3cccnc3)CN(C)C(=O)C2)cc1` are -8% and 1.19.
The corresponding values for `CN(C)c1ncn(-c2cccc(NCc3cc(F)c(F)c(F)c3)c2)n1` are 2% and -0.38.
